Test results from the supplement of paper PMC9433436.
± gives the standard deviation of the averaged measurements. In all, about 4,100 sequences were measured (“relative kcat/Km (krel) vs genomic leader AAAGAU”: median about 1.7, highest 2% from about 6.5 on). The entries are a selection whose mix differs from that of the whole data set.

Molecular target: T1, E. coli RNase P holoenzyme (M1 P RNA + rnpA protein) (UniProt P0A7Y8)
T1 sequence: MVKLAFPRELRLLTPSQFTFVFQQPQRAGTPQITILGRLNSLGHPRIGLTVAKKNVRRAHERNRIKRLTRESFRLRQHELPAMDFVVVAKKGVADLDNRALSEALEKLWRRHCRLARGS
Assay: relative kcat/Km (krel) vs genomic leader AAAGAU (relative (reference leader = 1)); higher = faster RNase P cleavage
Procedure: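 HTS-Kin: a pool of ptRNA-Met (21C construct) with all 4096 combinations of 5' leader nucleotides N(-6) to N(-1) was processed in vitro by E. coli RNase P (P RNA + rnpA/C5 protein) under multiple-turnover conditions at 37 C, pH 8, 17.5 mM MgCl2. Residual substrate was Illumina-sequenced at several fractions reacted, and relative kcat/Km (krel) was computed by internal competition kinetics, calibrated to the genomic leader (AAAGAU = 1). The listed hexamer is the varied N(-6)..N(-1) leader (DNA letters), and it sits between a fixed 5' stem-loop flank (GCAUGCACGAAAGUGCGUGCUAUGAA) and the mature tRNA-Met starting GGCUACGUAGCUCAGUUGG. Two technical replicates are averaged.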

[1] = fraction of substrate reacted: ~9-10% (9.79% repeat 1, 9.1% repeat 2)
[2] = fraction of substrate reacted: ~13-16% (15.68% repeat 1, 13.17% repeat 2)
[3] = fraction of substrate reacted: ~26-29% (28.66% repeat 1, 26.4% repeat 2)

| Sequence | relative kcat/Km [1] | relative kcat/Km [2] | relative kcat/Km [3] |
| --- | --- | --- | --- |
| CTTCAT | 4.07 ± 1.5 | 4.78 ± 0.63 | 6.67 ± 2.6 |
| TGATTA | 2.2 ± 0.59 | 2.91 ± 0.12 | 3.73 ± 1.7 |
| CCGTAA | 3.37 ± 1.6 | 3.36 ± 1.1 | 4.6 ± 1.9 |
| GTTCAC | 3.88 ± 0.89 | 4.82 ± 0.92 | 6.76 ± 2.6 |
| CCACGT | – | 0.313 ± 0.19 | – |
| CAGGAA | 1.95 ± 1.2 | 1.51 ± 0.021 | 2.24 ± 0.82 |
| ACCGGT | – | – | 1.78 ± 1.1 |
| CGATAA | 3.35 ± 0.75 | 3.7 ± 1.2 | 5.94 ± 3 |
| ACTGAG | 1.16 ± 0.68 | – | 1.12 ± 0.33 |
| CCGCAT | 2.8 ± 0.84 | 2.91 ± 0.48 | 4.09 ± 1.3 |
| GCAGGA | – | 0.416 ± 0.17 | 0.936 ± 0.67 |
| GGTCTC | 0.785 ± 0.12 | 0.509 ± 0.09 | 1.14 ± 0.2 |
| AGTCTC | 2.08 ± 0.19 | 2.58 ± 0.26 | 3.44 ± 0.9 |
| GACTGG | – | – | 0.312 ± 0.28 |
| CTCAGG | 1.96 ± 1.2 | 1.21 ± 0.29 | 2.45 ± 0.18 |
| AATTGT | – | – | 1.5 ± 1.2 |
| ACGAGC | 1.54 ± 0.27 | 1.74 ± 0.63 | 1.95 ± 0.42 |
| AAGTCC | 1.69 ± 0.61 | 1.95 ± 0.29 | 2.1 ± 0.11 |
| GAAATG | – | – | 1.39 ± 0.18 |
| TGGCAG | – | – | 1.02 ± 0.66 |
| TTTTCT | 2.69 ± 0.86 | 3.69 ± 0.91 | 4.94 ± 1.8 |
| TACAGC | 3.82 ± 2 | 4.94 ± 0.45 | – |

| Sequence | relative kcat/Km [1] | relative kcat/Km [2] | relative kcat/Km [3] |
| --- | --- | --- | --- |
| ACAGAC | 1.89 ± 0.77 | 3.1 ± 0.47 | 3.42 ± 0.9 |
| TAAGCA | 1.03 ± 0.76 | 1.4 ± 0.22 | 1.54 ± 0.22 |
| GTACAA | 1.88 ± 1.1 | 2 ± 0.32 | 3.16 ± 1.6 |
| AGTACT | 2.34 ± 1.3 | 2.42 ± 0.095 | 3.74 ± 1.6 |
| GAACTA | 0.781 ± 0.45 | 1.6 ± 0.51 | 1.55 ± 0.37 |
| GTCTGC | 3.58 ± 1.3 | 4.94 ± 1.2 | 7.11 ± 3.3 |
| ATTAGT | – | – | 2.02 ± 1.9 |
| CCCGGA | 1.41 ± 0.36 | 1 ± 0.26 | 1 ± 0.27 |
| CATACA | 2.18 ± 1.1 | 1.98 ± 0.059 | 2.54 ± 0.85 |
| TCTTAC | 4.07 ± 1.8 | 4.47 ± 0.29 | 6.39 ± 1.9 |
| TGAACC | 1.62 ± 1.1 | 1.56 ± 0.31 | 2.48 ± 0.68 |
| TGAATA | 1.93 ± 0.86 | 1.59 ± 0.1 | 2.38 ± 1 |
| CACTGC | 3.89 ± 1.6 | 4.53 ± 1.3 | 6.06 ± 1.9 |
| TTGTCG | – | – | 1.07 ± 0.3 |
| AAACCA | 0.558 ± 0.15 | 0.733 ± 0.54 | 0.88 ± 0.078 |
| GCCCGA | 3.27 ± 1.2 | 3.68 ± 0.61 | 5.54 ± 2.1 |
| CATGCC | 1.89 ± 0.25 | 1.43 ± 0.76 | 2.15 ± 1.1 |
| ATGTCG | – | – | 1.1 ± 0.13 |
| ATAATC | 2.28 ± 1.6 | 1.55 ± 0.12 | 1.97 ± 0.51 |
| TATATC | 2.8 ± 1.7 | 2.65 ± 0.28 | 3.66 ± 1.3 |
| TGCCCT | 1.75 ± 0.94 | 2.15 ± 1.1 | 2.34 ± 0.99 |
| GCGTGA | 0.413 ± 0.4 | 0.685 ± 0.29 | 1.42 ± 0.34 |

| Sequence | relative kcat/Km [1] | relative kcat/Km [2] | relative kcat/Km [3] |
| --- | --- | --- | --- |
| GAGTTC | 1.41 ± 0.47 | 1.26 ± 0.38 | 1.74 ± 0.74 |
| GTGCAG | 1.19 ± 1 | – | 1.058 ± 0.006 |
| AGGCAG | 1.19 ± 1 | 0.898 ± 0.22 | 1.95 ± 0.36 |
| CTCTGT | 0.825 ± 0.31 | 1.81 ± 1.4 | 2.05 ± 1.6 |
| GTATTG | – | – | 1.75 ± 0.3 |
| TAAGTG | – | – | 0.321 ± 0.023 |
| ATAGCT | 1.05 ± 0.27 | 1.53 ± 0.29 | 1.25 ± 0.14 |
| ATGCAA | 0.826 ± 0.51 | 0.904 ± 0.38 | 1.32 ± 0.2 |
| GCTAAT | 0.911 ± 0.23 | 1.14 ± 0.37 | 1.87 ± 0.48 |
| CGTGCC | 1.41 ± 0.84 | 1.73 ± 1.1 | 1.83 ± 0.35 |
| GCAATG | – | – | 1.35 ± 0.34 |
| AACGCT | 1.66 ± 1.2 | 1.13 ± 0.28 | 2.05 ± 0.63 |
| TCTAAT | 3 ± 1.6 | 3.77 ± 0.8 | 4.46 ± 2 |
| ACCTTT | 2.86 ± 0.55 | 3.87 ± 0.96 | 5.07 ± 1.9 |
| ACGTCT | 1.95 ± 0.33 | 2.23 ± 0.95 | 3 ± 0.77 |
| TGAGAT | 0.754 ± 0.15 | 0.98 ± 0.33 | 1.44 ± 0.34 |
| ATACTT | 1.93 ± 1.3 | 1.97 ± 0.58 | 2.62 ± 1.1 |
| TGACAT | 2.4 ± 0.31 | 3.8 ± 1.1 | 5.84 ± 2.8 |
| GCTACT | 1.29 ± 0.45 | 0.602 ± 0.054 | 1.58 ± 0.79 |
| GCTGCC | 1.37 ± 0.5 | 0.461 ± 0.12 | 0.965 ± 0.29 |
| CGGTTT | – | 1.13 ± 0.27 | 1.05 ± 0.88 |
| CAAGTT | 0.913 ± 0.56 | 0.891 ± 0.12 | 1.05 ± 0.45 |

| Sequence | relative kcat/Km [1] | relative kcat/Km [2] | relative kcat/Km [3] |
| --- | --- | --- | --- |
| TAGTAC | 4.35 ± 1.3 | 5.28 ± 0.82 | – |
| ACGTAT | 2.73 ± 1.2 | 3.73 ± 1.2 | 5 ± 1.8 |
| GAATCC | 1.22 ± 1.1 | 1.8 ± 0.32 | 1.645 ± 0.0062 |
| CTTCAG | – | 1.26 ± 0.073 | 2.21 ± 0.1 |
| TGTGTA | 1.79 ± 1.2 | 1.02 ± 0.46 | 1.43 ± 0.65 |
| CCCTTA | 2.76 ± 0.36 | 3.38 ± 1.1 | 4.7 ± 1.5 |
| GCCGCT | 1.31 ± 0.67 | – | 1.9 ± 0.66 |
| AAAAGG | – | – | 0.378 ± 0.039 |
| GATAAG | – | 1.35 ± 0.65 | 2.29 ± 0.6 |
| TCGACG | – | – | 2.23 ± 0.3 |
| ACACTA | 1.82 ± 0.75 | 1.53 ± 0.19 | 1.73 ± 0.22 |
| GGGGGC | – | – | 1.59 ± 1.6 |
| TAATCC | 1.12 ± 0.074 | 1.55 ± 0.32 | 2.4 ± 0.91 |
| CCCGCG | 1.15 ± 0.018 | – | 2.27 ± 0.032 |
| TAGTAG | 1.88 ± 1.1 | 1.81 ± 0.36 | 3.72 ± 1.2 |
| TGAGGA | 0.562 ± 0.032 | – | 1.42 ± 0.78 |
| ACCGGG | – | 0.518 ± 0.4 | – |
| GCTCTT | 1.4 ± 1.4 | 1.16 ± 0.71 | 1.481 ± 0.0086 |
| CTTTCT | 3.15 ± 0.75 | 3.3 ± 1 | 4.15 ± 0.95 |
| GCCGAG | 1.93 ± 1.2 | 1.4 ± 0.4 | 2.96 ± 0.7 |
| TTGGGC | 1.37 ± 1.2 | 0.775 ± 0.68 | – |
| GCCGTG | – | 0.363 ± 0.24 | – |

| Sequence | relative kcat/Km [1] | relative kcat/Km [2] | relative kcat/Km [3] |
| --- | --- | --- | --- |
| GTAGTA | 1.14 ± 0.63 | 1.19 ± 0.34 | 1.38 ± 0.23 |
| CCCCCC | 2.3 ± 0.57 | 2.83 ± 1.3 | 2.97 ± 1.2 |
| GACATT | 3.42 ± 0.26 | 4.33 ± 1.3 | 6.4 ± 3.1 |
| ACGCCC | 2.16 ± 0.76 | 2.28 ± 0.84 | 3.21 ± 1.2 |
| CGAGAC | 3.33 ± 0.08 | 2.84 ± 1.4 | 4 ± 2.3 |
| AGCTTG | – | – | 1.254 ± 0.0075 |
| TTAAAT | 3.03 ± 1.4 | 2.972 ± 0.016 | 4.14 ± 1.4 |
| TCTGAC | 2.82 ± 0.24 | 3.41 ± 1 | 3.99 ± 2.1 |
| CACACC | 2.49 ± 1.9 | 2.8 ± 0.45 | 4.67 ± 1.6 |
| GCCTGA | 2.14 ± 0.69 | 4.01 ± 0.52 | 5.28 ± 2.4 |
| GGGGGA | – | – | 1.61 ± 1.4 |
| TGGAGA | – | – | 0.862 ± 0.092 |
| TCGGAG | 0.959 ± 0.8 | 0.391 ± 0.23 | 0.613 ± 0.14 |
| CACGAA | 4.26 ± 1.8 | 6 ± 1.6 | – |
| ATACAC | 2.97 ± 1.6 | 3.29 ± 0.21 | 4.7 ± 1.6 |
| CACTGA | 2.94 ± 1.2 | 3.71 ± 0.65 | 5.8 ± 1.7 |
| ACTGTT | – | 0.629 ± 0.32 | 0.808 ± 0.1 |
| TGAATT | 1.85 ± 0.021 | 2.46 ± 0.35 | 3.24 ± 1.4 |
